Data from PubChem BioAssay AID686979 (National Center for Advancing Translational Sciences (NCATS), 2013).
Where “and” joins values, the source holds several entries; their conditions need not be identical. Equal values may be shown once. Out of some 420,000 compounds screened, about 50,000 (12%) were called active. Inconclusive means that the source gave no clear call. Such entries were picked first, then a sample of the others. Calls come from the whole dose curve; as a rule, active = well fitted inhibition curve with a large enough effect; inconclusive = small, poorly fitted or top-dose-only effect; inactive = flat fitted curve, though single readings scatter. Potencies beside an inconclusive call are fits to weak or partial responses and may not hold up.

experiment: qHTS for Inhibitors of human tyrosyl-DNA phosphodiesterase 1 (TDP1): qHTS in cells in presence of CPT; settings: chicken DT40 Tdp1-/-;hTDP1 cells + 20 nM CPT, ATP luminescence, 48 h; activity change, negative = growth inhibition: at 46.2 µM (top of the series) unless noted; note: nearly all actives have a fitted effect of over 55% in size
Outline: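 Chicken DT40 Tdp1-/- cells stably complemented with human TDP1 were seeded at 400 cells/well in medium containing 20 nM camptothecin, exposed to pin-transferred compounds, and grown at 37 °C for at least 48 hr. Viability was read as ATP luminescence.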
% is set by controls: 0 for no effect and ±100 for the full control effect; potency is the fitted concentration of half-maximal effect; tags give direction and shape of the fitted curve.

| SMILES | Potency | activity change, negative = growth inhibition |
| --- | --- | --- |
| CCOC(=O)N1CCN(c2c(N3CCN(c4ccccn4)CC3)c(=O)c2=O)CC1 | inconclusive: 29.1 µM [inhibitor, single point] | – |
| O=C(O)CSc1c2c(nc3cc(C(=O)Nc4ccc(F)c(Cl)c4)ccc13)CCC2 | – | inactive: 11.4% |
| COC(=O)c1ccc(CSc2nnc(Nc3ccc(C)cc3)s2)o1 | inconclusive: 29.1 µM [inhibitor, single point] | – |
| COC(=O)c1cc(C(=O)Nc2nnc(C3CC3)s2)cc([N+](=O)[O-])c1 | – | inconclusive: -32.8% [inhibitor] |
| Cc1ccc(NC(=O)CSc2nc3c(oc4ccccc43)c(=O)n2-c2ccc(F)cc2)c(C)c1 | – | inactive: -21.9% |
| CCOc1cc(C2C(C(=O)c3ccccc3)=C(C(=O)OC)Nc3nnnn32)ccc1O (centres undefined) | – | inactive: 1.63% |
| CCOC(=O)c1ccc(N2CCN(c3cc(C)ccc3C)CC2)c(NC(=O)Nc2ccccc2)c1 | active: 5.8 µM | – |
| CCN1C(=O)c2cccc3c(NC(=O)c4ccc(OC)c(OC)c4)ccc1c23 | – | inactive: -21.6% |
| O=C(Nc1ccc(Cl)cc1)N1CCCN(Cc2ccc(F)cc2)C1 | active: 23.1 µM | – |
| COc1ccc(C2=CC(=O)CC(c3ccc(OC)cc3)C2)cc1 (centres undefined) | – | inactive: 7.58% |
| Cc1cccn2c(=O)c3cc(C#N)c(=O)n(-c4nnc(SCc5ccccc5F)s4)c3nc12 | inconclusive: 29.1 µM [inhibitor, single point] | – |
| Cc1cccc(NS(=O)(=O)c2ccc(NC(=O)CN(c3cc([N+](=O)[O-])ccc3C)S(C)(=O)=O)cc2)c1 | active: 16.4 µM | – |
| COc1ccc(CNCc2cccc(C)c2)cc1 | – | inactive: -27.6% |
| Cn1cc(C(=O)c2ccc(Cl)cc2Cl)cc1C(=O)N/N=C(\N)COc1ccc(Cl)cc1Cl | inconclusive: 29.1 µM [inhibitor, single point] | – |
| NC(N)=N/N=C/c1ccc(OCc2ccc(Cl)cc2Cl)cc1 | active: 25.9 µM | – |
| CCOCCCn1c(SCC(=O)Nc2ccc(NC(C)=O)cc2)nc2ccccc2c1=O | – | inactive: -13.4% |
| C=Cc1ccc(Cn2nc(-c3ccc(C)c(S(=O)(=O)N(CC)CC)c3)ccc2=O)cc1 | active: 16.4 µM | – |
| COc1cccc(C2c3[nH]c4ccccc4c3CCN2Cc2cccc(C)n2)c1 (centres undefined) | inconclusive: 29.1 µM [inhibitor, single point] | – |
| Cn1nc(-c2ccc(C(=O)Nc3ccc(F)cc3)cc2)c2ccccc2c1=O | inconclusive: 29.1 µM [inhibitor, single point] | – |
| O=C1O[C@H]2[C@H](O)[C@@H]1OC(O)[C@H]2O (some centres undefined) | – | inactive: -4.81% |
| O=C1NC(=O)C2(COC(c3ccncc3)OC2)S1 (centres undefined) | – | inactive: -2.89% |
| CCC(C)Sc1nnc(CNC(=O)C23CC4CC(CC(C4)C2)C3)n1C1CCCCC1 (centres undefined) | inconclusive: 25.9 µM [inhibitor, single point] | – |
| CCOc1ccccc1NC(=O)Cn1nnc2sc(-c3ccccc3)cc2c1=O | – | inactive: -13.8% |

| SMILES | Potency | activity change, negative = growth inhibition |
| --- | --- | --- |
| COc1cccc(NC(C)=[N+](C)CCNS(=O)(=O)c2ccc(Cl)cc2)c1 | inconclusive: 29.1 µM [inhibitor, single point] | – |
| O=C(C[n+]1ccn(-c2ccccc2)c1)c1ccc([N+](=O)[O-])cc1 | active: 14.6 µM | – |
| COc1ccc(CCN(C)C(=O)CSc2nc3ccccc3c(=O)n2CC2CCCO2)cc1OC (centres undefined) | inconclusive: 29.1 µM [inhibitor, single point] | – |
| Cc1ccc2nc(SCc3nnc(-c4ccccc4[N+](=O)[O-])o3)c(C#N)cc2c1 | inconclusive: 31.6 µM [inhibitor, single point] | – |
| Cc1ccc(C2=NC3(CCCCC3)NC2=S)cc1 | – | inactive: 0.101% |
| CC(Sc1cccc[n+]1[O-])C(=O)Nc1cccc([N+](=O)[O-])c1 (centres undefined) | – | inactive: 12.7% |
| COC(=O)CCC(C)C1CCC2C3C(OC(C)=O)CC4CC(O)CCC4(C)C3CC(O)C12C (centres undefined) | inconclusive: 23.1 µM [inhibitor, partial curve] | – |
| Cn1c(=O)c2cn3c(c2n(C)c1=O)C(c1ccccc1)CC(c1ccccc1)=N3 (centres undefined) | inconclusive: 20.6 µM [inhibitor, single point] | – |
| CCOc1ccc(C(=O)O[C@H]2[C@H](Cc3ccccc3)NS(=O)(=O)[C@H]3C[C@@H]4C=C[C@]23O4)cc1 | inconclusive: 16.4 µM [inhibitor, partial curve] | – |
| COc1cccc(OC)c1C(=O)Nc1ccc(N2CCCC2)cc1 | – | inactive: 19.8% |
| CC(C)c1ccc(S(=O)(=O)NCc2ccc3c(c2)CCN3C(=O)c2ccccc2)cc1 | active: 23.1 µM | – |
| COc1ccc2cc(C(=O)C3CCCN(Cc4ccccn4)C3)ccc2c1 (centres undefined) | inconclusive: 16.4 µM [inhibitor, single point] | – |
| COc1cc([C@H]2[C@@H]3CCCC[C@]3(O)CCN2CC(=O)Nc2ccc(C)cc2C)ccc1O | inconclusive: 29.1 µM [inhibitor, single point] | – |
| CCc1ccccc1NC(=O)Nc1cc(C(=O)NCc2ccc(C)cc2)ccc1N1CCCC1 | inconclusive: 2.59 µM [inhibitor, partial curve, poor fit] | – |
| Cc1ccc(-c2nc(CS(=O)CC(=O)NCc3ccc(F)cc3)c(C)o2)cc1 (centres undefined) | – | inactive: -9.86% |
| CCCC#Cc1cnc2c(c1)C(=O)N([C@H](C)CO)C[C@@H](C)[C@@H](CN(C)C(=O)Nc1cccc(F)c1)O2 | inconclusive: 23.1 µM [inhibitor, single point] | – |
| CCOc1ccccc1NC(=O)c1c(NC(=O)c2cccc(C)c2)sc2c1CCCC2 | inconclusive: 16.4 µM [inhibitor, single point] | – |
| CCCN(CC(=O)Nc1ccccc1C)C(=O)CCCOc1ccc(Br)cc1 | inconclusive: 20.6 µM [inhibitor, single point] | – |
| COc1cccc(N2CCN(c3ccc4nnc(CCC(=O)Nc5ccccc5OC)n4n3)CC2)c1 | inconclusive: 29.1 µM [inhibitor, single point] | – |
| Cn1cc([C@@H]2C[C@H]3CN(C4CCCC4)C(=O)[C@]34CCCN24)c(-c2ccccc2)n1 | – | inactive: -13.7% |
| CCN(CC)C(=S)Sc1c(-c2ccccc2)c2cc(Cl)ccc2[nH]c1=O | active: 2.31 µM | – |
| COc1ccc(OCc2cc(=O)[nH]c3ccccc23)cc1 | – | inactive: -16.7% |
| CC(C)NC(=S)NC(=O)c1ccc(Cl)cc1Cl | inconclusive: 29.1 µM [inhibitor, single point] | – |

| SMILES | Potency | activity change, negative = growth inhibition |
| --- | --- | --- |
| COc1cc2c(cc1OC)C(c1ccccc1)N(C(=O)c1ccccc1)CC2 (centres undefined) | inconclusive: 18.4 µM [inhibitor, single point] | – |
| CCCn1c2ccccc2c2nnc(SCC(=O)Nc3ncccn3)nc21 | active: 25.9 µM | – |
| Cc1nn(Cc2ccccc2)c(C)c1NC(=O)c1cc(-c2cccs2)on1 | inconclusive: 29.1 µM [inhibitor, single point] | – |
| Cc1cccc(-c2c3c(=O)n(C)c(=O)n(C)c3cn2-c2ccccc2O)c1 | inconclusive: 23.1 µM [inhibitor, single point] | – |
| CN1CCN(CC(=O)c2cc(C(C)(C)C)c(O)c(C(C)(C)C)c2)CC1 | inconclusive: 29.1 µM [inhibitor, single point] | – |
| Cc1cc(C)cc(OCC(=O)N2CCN(c3ncccn3)CC2)c1 | – | inactive: -19.3% |
| CCOc1cc(CO)cc(Br)c1OCC(N)=O | – | inactive: -4.12% |
| CCOC(=O)C1=C(C)NC(C)=C(C(=O)OCC)C1C(=O)OCC(=O)NCc1ccccc1OC | inconclusive: 20.6 µM [inhibitor, single point] | – |
| CC(C)(C)NC(=O)C(c1ccc(F)cc1)N(CCc1ccccc1)C(=O)c1ccn[nH]1 (centres undefined) | inconclusive: 29.1 µM [inhibitor, single point] | – |
| Cc1c(C)c(C)c(CN2CCSCC2)c(C)c1C | inconclusive: 29.1 µM [inhibitor, single point] | – |
| CCN1C2=NCCCN2c2ccccc21 | – | inactive: -5.3% |
| CC(=O)N1CCCc2cc(S(=O)(=O)N3CCCC(C(=O)Nc4ccccc4C)C3)ccc21 (centres undefined) | inconclusive: 2.06 µM [inhibitor, partial curve, poor fit] | – |
| Cc1ccc(-c2c(C(=O)N/N=C/c3c[nH]c4ccccc34)nnn2-c2nonc2N)cc1 | inconclusive: 18.4 µM [inhibitor, single point] | – |
| NS(=O)(=O)c1ccc(N2N=C(c3ccccc3)CC2c2cccc(F)c2)cc1 (centres undefined) | inconclusive: 25.9 µM [inhibitor, single point] | – |
| S=C(NCCc1ccccc1)N/N=C/c1ccc(Cl)cc1 | inconclusive: 29.1 µM [inhibitor, single point] | – |
| COc1cccc(NC(=O)C2CCCN2C(=O)OCc2ccccc2)c1 (centres undefined) | – | inconclusive: -32.8% [inhibitor] |
| Cc1oc(-c2ccc(Cl)cc2)nc1CN1CCCC(C(=O)N2CCOCC2)C1 (centres undefined) | inconclusive: 29.1 µM [inhibitor, single point] | – |
| Cc1nccn1C(c1ccccc1)c1ccccc1 | inconclusive: 29.1 µM [inhibitor, single point] | – |
| O=C(Nc1ccc(C(F)(F)F)cc1)C1CCCN(c2cnccn2)C1 (centres undefined) | inconclusive: 20.6 µM [inhibitor, single point] | – |
| C=C(C)CCOC(=O)C(CC(=O)O)NCc1ccco1 (centres undefined) | – | inactive: -1.28% |
| O=C(Nn1c(COc2ccccc2)nc2ccccc2c1=O)C(Cl)(Cl)Cl | inconclusive: 25.9 µM [inhibitor, partial curve] | – |
| C=C[C@@H]1c2c(F)cccc2N(S(=O)(=O)c2ccc(C)cc2)[C@H](c2ccc(C(=O)OC)cc2)C1(C#N)C#N | inconclusive: 15.8 µM [inhibitor, single point] and inconclusive: 29.1 µM [inhibitor, single point] | – |
| COc1ccccc1NC(=O)c1csc2c1CCCC2 | inconclusive: 23.1 µM [inhibitor, single point] | – |
